Hit rate of the full screen: of about 46,000 compounds, about 60 (0.1%) were called active. Not shown: some 3% with an inconclusive outcome. The call rests on the fitted dose curve; in most records, active means well fitted inhibition curve with a large enough effect; inconclusive means small, poorly fitted or top-dose-only effect; inactive means no such curve, though single readings can be large or run the other way. The list shows a part of the results.
Test: Primary qHTS assay for Inhibitors of ovarian cancer metastasis using an organotypic tumor microenvironment (TME) model. Further: nearly all actives have a fitted effect of over 65% in size.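 On activity change, negative = inhibition: plate controls were DMSO wells for no effect and tomatine positive control wells for full effect.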
Settings: SKOV3ip1-GFP adhesion/invasion on 3D omental model, fluorescence; series mostly up to 45.8 µM; activity change, negative = inhibition: at the top concentration
Summary of the method: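 qHTS, 4-pt dose (0.36-46 umol/L); SKOV3ip1-GFP, 1,200 cells/well, no FBS; primary omental fibroblast/mesothelial co-culture 48 h pre-grown; 2 h RT + 16 h 37 C; PBS wash, 4% PFA; GFP count 488/509 nm.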

Activity change, negative = inhibition, inactive:
Cc1ccc(S(=O)(=O)c2[nH]c(-c3ccccc3)nc2SCCC(=O)O)cc1 2.11%
CCn1ccc2c(OCC(=O)NCc3ccccc3)cccc2c1=O -0.915%
CCCN1CCN(c2cc3c(cc2F)c(=O)c(S(=O)(=O)c2ccc(CC)cc2)cn3CC)CC1 -36.7%
Cc1c(Cl)cccc1NC(=O)CSc1nc2ncccc2o1 2.04%
C[C@@H]1[C@H](O)[C@@H](C)C=CC=CC=CC=CC=CC=CC=C[C@H](O[C@@H]2O[C@H](C)[C@H](O)[C@H](N)[C@@H]2O)C[C@@H]2O[C@](O)(C[C@@H](O)C[C@@H](O)[C@H](O)CC[C@@H](O)C[C@@H](O)CC(=O)O[C@H]1C)C[C@H](O)[C@@H]2C(=O)O 0.804%
COc1ccc2oc(-c3ccc(C)c(NC(=O)c4ccc(-c5ccccc5[N+](=O)[O-])o4)c3)nc2c1 5.3%
Cc1cccc(-c2nc3c(cnn3-c3ccccc3)c(=O)n2-c2ccc(Br)cc2)c1 -12%
CC(C)(C)C1CCc2nc(NC(=O)c3ccc([N+](=O)[O-])cc3)sc2C1 (configuration not stated) -2.34%
Cc1ccc2[nH]c(CSc3nnc(NC(=O)c4ccccc4F)s3)cc(=O)c2c1 2.24%
CCc1ccccc1NC(=O)c1sc2nc(C)cc(COC)c2c1N 0.621%
COc1ccccc1CNC(=O)C1CCCN(c2nnc(C)c3c(C)n(-c4ccccc4)nc23)C1 (configuration not stated) -25.8%
COCc1cc(C)nc2sc3c(c12)NC(c1ccc(O)c(OC)c1)N(c1ccccc1)C3=O (configuration not stated) -1.53%
CC(C)c1ccc(CNc2nc(-c3ccco3)nn2C(=O)c2ccc([N+](=O)[O-])cc2)cc1 -3.46%
CSCCC(NS(=O)(=O)c1ccc2c(c1)oc(=O)n2C)C(=O)Nc1ccc(Cl)cc1 (configuration not stated) -2.5%
COc1cc(OC)cc(-c2cc3nc(C)c(CCC(=O)Nc4ccc(C(C)=O)cc4)c(C)n3n2)c1 0.147%
O=C(NC1(C(F)(F)F)C(=O)Nc2c1c(=O)[nH]c(=O)n2-c1ccccc1)c1ccccc1Cl (configuration not stated) 1.77%
C=Cc1ccc(Cn2c(=O)cc(C)c3c(C)nn(-c4ccccc4)c32)cc1 -2.59%
CCOCCCNc1nc2ccccc2n2c(CC)nnc12 0.788%
COc1ccc(-c2noc(N3CCC(C(=O)N4CCN(c5ccccc5F)CC4)CC3)n2)cc1 5.1%
COc1ccc(NC(=O)Cn2c(=O)n(Cc3ccc4c(c3)OCO4)c(=O)c3ccc(C(=O)NC4CCCCC4)cc32)cc1 -7.53%
CCn1c(C)c(C)c2cc(C(=O)NCc3ccc(OC(C)C)cc3)ccc21 -8.18%
COc1ccc2c(c1)cc1c(=O)n(CC(=O)NCCCOC(C)C)nc(C)n12 9.7%
COc1cc2c(C(=O)N3CCN(c4cccc(C(F)(F)F)c4)CC3)cn(CC(C)C)c(=O)c2cc1OC 0.646%
COc1ccc(-c2cn3nc(N4CCCC(C(=O)Nc5ccccc5OC)C4)sc3n2)cc1 (configuration not stated) -10.1%
COc1ccccc1NC(=O)CSc1nc(-c2ccc(C)cc2)nc2c1Cc1c(CO)cnc(C)c1O2 3.37%
CCOC(=O)c1c(S(=O)(=O)NCC(=O)N2CCN(c3cc(C)ccc3C)CC2)c(C)n(C)c1C 1.16%
Cc1cccc(NC(=O)CCN2CCN(c3ccccc3F)CC2)c1 14.7%
Cc1ccc(Cl)cc1NC(=O)CN1C(=O)CSc2ccc(S(=O)(=O)N3CCCC3)cc21 -12.3%
CCOCCc1nn2c(=O)cc(COC(=O)Cc3ccccc3)nc2s1 11%
CSCC[C@@H](C(=O)Nc1cccc(F)c1)N1Cc2ccccc2C1=O 22.8%
CCCN(C(=O)Cn1ncc2c1-c1ccccc1OC2)c1cccc(C)c1 0.637%
CCc1ccc(-c2nc(SCC(=O)NCC3CCCO3)c(-c3ccc(C)cc3)[nH]2)cc1 (configuration not stated) 11.9%
Cc1cccc(N2CCN(c3ccc(C(=O)O)cc3NC(=O)c3cccc(Cl)c3)CC2C)c1 (configuration not stated) 3.28%
Cc1cc(C)cc(-n2c(C)cc(C(=O)C(=O)Nc3nnc(C)s3)c2C)c1 9.16%
CN(C(=O)Cn1cnc2onc(-c3ccc(F)cc3)c2c1=O)c1ccccc1Cl -3.46%
O=C(Nc1cc2c(cc1C(=O)c1cccc(Br)c1)OCCO2)c1ccccc1F 34.2%
CN(c1ccccc1)S(=O)(=O)c1nnc(NC(=O)COc2ccccc2)s1 -1.33%
CCOC(=O)c1cc2c(=O)n3ccccc3nc2n(Cc2ccco2)c1=NC(=O)c1ccc(C)c(C)c1 -5.64%
CCOc1ccc(C(=O)NCc2nc3cccnc3n2Cc2cccc(OC)c2)cc1 15.3%
CCCN(CCC)C(=O)Cn1c(SCc2cccc(C(F)(F)F)c2)nc2cccnc21 -13.4%
O=C(NC1(C(F)(F)F)C(=O)Nc2c1c(=O)[nH]c(=O)n2-c1ccccc1)c1ccccc1 (configuration not stated) 3.25%
CCOc1ccccc1CNC(=O)c1ccc(NC(=O)N2CC(C)Sc3ccccc32)cc1 (configuration not stated) 1.86%
COc1ccc(OC)c(CNC(=O)CN(c2ccc(C)cc2)S(=O)(=O)N(C)C)c1 8%

outcome, inactive:
NC(=O)c1ccc(NC(=O)C2CCN(S(=O)(=O)Cc3ccccc3)CC2)cc1
Cc1ccc(C(=O)O)cc1NC1(c2ccccc2)C(=O)c2ccccc2C1=O
CC1Cn2c(C(=O)NCc3cccc(Br)c3)cc3cccc(c32)S1 (configuration not stated)
O=C(CCSCc1cccc(Cl)c1)NCc1ccc(F)cc1Cl
COc1ccc(OCC(=O)N(Cc2cccs2)c2ccc(OC)cc2)cc1
COc1ccc(Cl)cc1S(=O)(=O)Nc1cccc(-c2ccc(N3CCCC3)nn2)c1
Cc1nn2c(=O)cc(COC(=O)c3ccc(NC(=O)c4cccc(Br)c4)cc3)nc2s1
O=C(CSc1nccn1C1CCCC1)Nc1cccc(F)c1
COc1ccc(CCNC(=O)c2nc(SCc3ccccc3F)ncc2Cl)cc1OC
CCOC(=O)C1CCN(c2c(C(=O)c3ccc(OC)cc3)cnc3ccccc23)CC1
Cc1cccc(C)c1NC(=O)Cn1c(=O)n(CCCS(=O)(=O)C2CCCCC2)c(=O)c2ccccc21
Cc1ccc(-n2c(=O)c3ccc(C(=O)NCc4ccco4)cc3n(CC(=O)Nc3ccccc3C(F)(F)F)c2=O)cc1
O=C(Cn1c(=O)oc2cc(S(=O)(=O)N3CCCCCC3)ccc21)Nc1ccc(F)cc1F
Cc1cccc(NC(=O)N2CCN(C)c3ncccc32)c1C

— PubChem BioAssay AID1963576 (National Center for Advancing Translational Sciences (NCATS), 2024)
